Reference: PubChem BioAssay AID488969 (Vanderbilt High Throughput Screening Facility, 2010)
Whole data set: some 110,000 compounds, median “z-score” near -0.1, cut for the highest 2% near 2. This is one part of the list. Activity calls are given as the source filed them.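 Rule for the calls: active = z-score in the third read window above 3 or below -3; inactive = the rest.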

Biological target: Metabotropic glutamate receptor 8 (Rattus norvegicus) (UniProt P70579)
Test: rat mGluR8 modulators via GIRK flux, primary screen, cell-based, thallium flux, HTS (AID 488969)
Conditions: HEK293 rat mGluR8, GIRK (G protein-gated inwardly rectifying potassium channel) thallium flux, FluoZin2; at 10 µM; stronger effect = higher value; submaximal glutamate (EC20) added with thallium

UniProt P70579, sequence (P70579 whole entry, looked up): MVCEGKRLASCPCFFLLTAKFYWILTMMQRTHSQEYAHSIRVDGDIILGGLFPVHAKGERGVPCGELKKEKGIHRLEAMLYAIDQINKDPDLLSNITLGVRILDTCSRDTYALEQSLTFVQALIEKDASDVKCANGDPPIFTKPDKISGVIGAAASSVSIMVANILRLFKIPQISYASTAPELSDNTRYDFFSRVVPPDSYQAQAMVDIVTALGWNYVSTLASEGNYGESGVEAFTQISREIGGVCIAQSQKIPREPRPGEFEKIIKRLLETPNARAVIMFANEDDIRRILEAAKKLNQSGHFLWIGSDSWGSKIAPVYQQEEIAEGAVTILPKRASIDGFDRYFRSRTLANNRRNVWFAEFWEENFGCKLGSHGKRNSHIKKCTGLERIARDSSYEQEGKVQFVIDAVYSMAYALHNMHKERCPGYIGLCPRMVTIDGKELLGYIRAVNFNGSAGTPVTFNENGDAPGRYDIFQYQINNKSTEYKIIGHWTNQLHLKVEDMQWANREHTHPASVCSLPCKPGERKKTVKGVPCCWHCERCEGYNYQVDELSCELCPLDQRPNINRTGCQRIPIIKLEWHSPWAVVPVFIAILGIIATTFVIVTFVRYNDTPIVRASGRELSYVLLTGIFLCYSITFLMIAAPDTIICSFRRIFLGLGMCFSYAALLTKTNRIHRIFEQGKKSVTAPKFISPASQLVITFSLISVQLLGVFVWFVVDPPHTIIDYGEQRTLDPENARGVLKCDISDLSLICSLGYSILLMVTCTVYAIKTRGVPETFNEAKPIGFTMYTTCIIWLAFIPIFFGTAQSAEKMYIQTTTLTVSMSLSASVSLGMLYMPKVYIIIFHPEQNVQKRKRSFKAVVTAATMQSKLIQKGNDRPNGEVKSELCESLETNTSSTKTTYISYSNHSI

First: COc1ccc(C)cc1NC(=O)c1cnc2n(c1=O)CCS2
Second: COC(=O)c1[nH]c2ccc(C)cc2c1NC(=O)Oc1ccccc1
The z-score of the first is lower: -0.189 for the first, 0.176 for the second.

Going from CCCCNC(=O)CC1N=C2c3ccccc3N=C(SCC(=O)Nc3cccc(C)c3)N2C1=O (stereo not drawn) to CCOc1ccccc1-n1c(SCC(=O)Nc2ccc(CC)cc2)nc2n[nH]c(C)c2c1=N, the z-score falls from -0.317 to -0.543.

Going from CCCS(=O)(=O)N1CCCC(C(=O)NCCCN(C)Cc2ccccc2)C1 (stereo not drawn) to O=C(CN1CCN(S(=O)(=O)c2ccccc2)CC1)NC(=O)NC1CCCCC1, the z-score falls from -0.043 to -0.406.

Going from CCc1ccc(/C=N/NC(=O)c2cc(-c3ccncc3)nc3ccccc23)s1 to COc1ccc(C(C)=O)cc1CSc1nc2ccccc2c(=O)n1-c1ccccc1, the z-score falls from 0.812 to 0.112.

Compared with O=C1CC(c2ccc(F)cc2)CC(O)=C1C=NCCN1CCNCC1 (stereo not drawn), O=C(CCCN1C(=O)c2ccccc2C1=O)N1CCC(c2ccccc2)C1 (stereo not drawn) is lower in z-score: 0.679 for the first, -0.552 for the second.

Compared with CC(C)c1cc(C(=O)Nc2cccnc2)no1, CC(C)c1cc(C(=O)Nc2cccc(C(F)(F)F)c2)no1 is higher in z-score: -0.13 for the first, 0.337 for the second.

Going from COc1cc(C(O)c2nc3ccccc3n2C)cc(OC)c1OC (stereo not drawn) to COc1cc(C(=O)NCC(=O)OCC(=O)c2ccc[nH]2)cc(OC)c1OC, the z-score falls from 0.615 to -0.277.

Going from COC(=O)c1ccc(S(=O)(=O)N2CCCCC2)o1 to COC(=O)c1ccc(S(=O)(=O)N2C3CCC2CC(NC(=O)NC2CCCCC2)C3)cc1 (stereo not drawn), the z-score rises from -0.0667 to -0.0401.

First: O=C(CCNC(=O)Cn1ccc2ccccc2c1=O)NCCN1CCc2ccccc2C1
Second: O=C(CSc1nc2ccccc2[nH]1)Nc1ccccc1N1CCOCC1
The z-score of the first is higher: 0.112 for the first, -0.49 for the second.

Going from CC(=O)c1cccc(NC(=O)Nc2cnn(Cc3ccc(Cl)cc3Cl)c2)c1 to Cc1cc(NC(=O)C2CCCN2C(=O)Nc2c(C)cccc2C)ccc1-n1cnnn1 (stereo not drawn), the z-score rises from -0.521 to -0.226.

First: Cc1ccc(CNS(=O)(=O)c2ccc(C(C)(C)C)cc2)n1C
Second: CC(C)(C)NS(=O)(=O)c1ccc(-c2csnn2)s1
The z-score of the first is higher: 0.224 for the first, 0.119 for the second.

Going from CCCC(C)C(=O)Nc1ccc2c(c1)OCCO2 (stereo not drawn) to O=C(NCCCn1ccnc1)c1cc(-c2ccc3c(c2)OCO3)on1, the z-score falls from 0.317 to -0.842.

Compared with CCOc1ccc(C(CC(=O)O)NC(=O)c2sc3ccccc3c2Cl)cc1 (stereo not drawn), CCCCOc1ccc(C(=O)Nc2ccncc2)cc1 is higher in z-score: -0.958 for the first, -0.848 for the second.

First: Cc1ccc(NCC(O)C(O)C(O)CO)cc1C (stereo not drawn)
Second: Cc1cc(C)c(NC(=O)NC(=O)c2ccc(F)cc2)c(C)n1
The z-score of the first is higher: 0.065 for the first, -0.563 for the second.

First: CN1CCN(CCCNC(=O)c2ccc(CSCc3cccc(Cl)c3)o2)CC1
Second: COCCCNC(=O)c1c(N)n(-c2ccc3c(c2)OCO3)c2nc3ccccc3nc12
The z-score of the first is higher: 1.35 for the first, -0.0775 for the second.

Compared with O=C(O)CCCCNCc1ccccc1, O=C(NCCc1ccccc1)c1ccnc(/C=N/O)c1 is higher in z-score: -0.0208 for the first, 0.0055 for the second.

Going from O=C(Cc1ccc(-n2c(=O)[nH]c3ccsc3c2=O)cc1)NCc1cccnc1 to NS(=O)(=O)c1ccc(CCNC(=O)c2cccnc2)cc1, the z-score rises from -0.236 to 0.181.

Going from CCC(=O)N/C(N)=N/c1nc(C)c2cc(OC)ccc2n1 to COc1ccc(NC(=O)CSc2nc(N)c(C#N)cc2C#N)cc1, the z-score falls from 0.0062 to -0.295.

Going from Cc1nc(N)sc1-c1csc(Nc2ccccn2)n1 to Cc1nnc(NCc2ccco2)s1, the z-score falls from 0.534 to -0.797.

Compared with c1nc(N2CCOCC2)c2sc3nc(N4CCOCC4)c4c(c3c2n1)CCCC4, Cc1ccc(NC(=O)c2ccc(CNc3c(N4CCOCC4)c(=O)c3=O)cc2)cc1 is lower in z-score: -0.0517 for the first, -0.0947 for the second.

First: CCCn1c(SCC(=O)Nc2nnc(CC)s2)nnc1-c1ccco1
Second: CCn1c(SCC(=O)c2ccc(O)c(O)c2)nnc1-c1ccc(C)cc1
The z-score of the first is higher: 0.461 for the first, -0.297 for the second.

Going from COC(=O)CN(c1nc(C)c(Cl)c(OC)n1)S(=O)(=O)c1ccc(C)cc1 to COC(=O)C(Cc1cnc(Cl)s1)(C(=O)OC)c1ccc([N+](=O)[O-])cc1[N+](=O)[O-], the z-score rises from -0.425 to 0.221.

Compared with COc1ccc(-c2nc(N3CCCCCC3)sc2C(=O)c2ccccc2)cc1, COc1ccc(C(=O)c2ccc(Cl)cc2)c2ccccc12 is higher in z-score: -0.453 for the first, -0.31 for the second.

Going from CC(=O)c1ccc(S(=O)c2ccccc2)cc1 (stereo not drawn) to CCCc1nc(-c2ccccc2O)n(-c2ccccc2)n1, the z-score rises from -0.124 to -0.0141.

Going from COC(=O)/C(=C\Nc1ccccc1N)c1ncc(C(F)(F)F)cc1Cl to O=C(Nc1cccc(C(F)(F)F)c1)C1C2CC3OC(=O)C1C3C2 (stereo not drawn), the z-score rises from -0.202 to 0.119.

First: Cn1cnnc1SC1CCCCC1NS(=O)(=O)c1ccc(Cl)cc1 (stereo not drawn)
Second: O=C1CS/C(=N\c2ccccn2)N1C1CCCCC1
The z-score of the first is higher: -0.287 for the first, -0.393 for the second.

Going from Cc1cc(C(=O)CN2C(=O)NC3(CCCCC3)C2=O)c(C)n1-c1ccc2c(c1)OCO2 to Cc1nc2cc3c(cc2c(C)c1C(=O)OC(C)C)OCO3, the z-score rises from -0.621 to -0.332.

Going from CCOC(=O)c1cnc2ccc(C)cc2c1OCc1cc(F)cc(F)c1 to CC(C)CNC(=O)COc1ncnc2ccccc12, the z-score rises from -0.633 to 0.0239.

Going from Cc1nc2c(o1)CCc1ccccc1C2N1CCN(C)CC1 (stereo not drawn) to O=C(c1coc(=O)c(Br)c1)N1CCCc2ccccc21, the z-score rises from 0.153 to 0.587.

First: O[C@@H](CNC[C@H](O)c1ccccc1)c1ccccc1
Second: O=P(O)(CCc1ccccc1)C(O)c1ccccc1 (stereo not drawn)
The z-score of the first is lower: -1.29 for the first, -0.89 for the second.

First: O=C1CN(C(=O)C2CCCC2)CCN1
Second: Cc1ccc(OC(=O)c2ccc(N3CCOCC3)c([N+](=O)[O-])c2)cc1
The z-score of the first is lower: -0.114 for the first, 0.485 for the second.

Compared with COC(CN1C(=O)C(O)=C(C(C)=O)C1c1ccccn1)OC (stereo not drawn), CCN(Cc1ccccc1)C(=O)CSc1nc(C)cc2c1C(=O)OC2 is lower in z-score: 0.0247 for the first, -0.695 for the second.

Compared with COc1ccc(CSc2nnc(Cc3sc(-c4ccccc4)nc3-c3ccccc3)o2)cc1, CC(=O)N(CCC(Cc1ccccc1)c1ccc2c(c1)OCO2)Cc1ccccc1F (stereo not drawn) is lower in z-score: -0.0107 for the first, -0.0818 for the second.

First: CC(C)(C)c1cc(C(=O)O)n[nH]1
Second: CC(C)(O)c1cc(=O)sc2nc3ccccc3n12
The z-score of the first is higher: 0.168 for the first, 0.0157 for the second.

First: CCC(/C=N/NC(=O)CCCCC(=O)N/N=C/C(CC)CC)CC
Second: CC(C)C(NC(=O)CN(c1cccc(F)c1)S(C)(=O)=O)C(C)C
The z-score of the first is lower: -0.362 for the first, 0.00518 for the second.

NC(=O)CSc1ncnc2c1oc1ccccc12 showed a z-score of -0.353.

N#Cc1c(N)nc(SCc2ccccc2)c(C#N)c1-c1ccco1 was tested, and the z-score was active: 11.4.
For O=C(Nc1nnc(-c2ccc3c(c2)CCCC3)o1)c1ccccc1Cl, the z-score was active: 5.26.
